Data as given in PubChem BioAssay AID1963576 (National Center for Advancing Translational Sciences (NCATS), 2024).
The whole screen tested about 46,000 compounds, of which about 60 (0.1%) were called active. Inconclusive results (about 3%) are left out. Calls come from the whole dose curve; as a rule, active = well fitted inhibition curve with a large enough effect; inconclusive = small, poorly fitted or top-dose-only effect; inactive = no such curve, though single readings can be large or run the other way. This is one part of the list.

assay: Primary qHTS assay for Inhibitors of ovarian cancer metastasis using an organotypic tumor microenvironment (TME) model.; note: nearly all actives have a fitted effect of over 65% in size;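 for activity change, negative = inhibition: plate controls were DMSO wells for no effect and tomatine positive control wells for full effect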; details: SKOV3ip1-GFP adhesion/invasion on 3D omental model, fluorescence; series mostly up to 45.8 µM; activity change, negative = inhibition: at the top concentration
Summary of the method: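 qHTS, 4-pt dose (0.36-46 umol/L); SKOV3ip1-GFP, 1,200 cells/well, no FBS; primary omental fibroblast/mesothelial co-culture 48 h pre-grown; 2 h RT + 16 h 37 C; PBS wash, 4% PFA; GFP count 488/509 nm.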

Activity change, negative = inhibition, inactive:
Cc1cc(C)cc(NC2=CC(c3cccc(F)c3)N(c3cc(C)cc(C)c3)C2=O)c1 (configuration not stated) 31.5%
CCOc1ccc(CC(=O)NCCc2sc3nc(-c4ccc(OC)cc4)nn3c2C)cc1 -13.7%
CC1CCN(C(=O)Cn2c(=O)oc3cc(S(=O)(=O)N4CCCCC4)ccc32)CC1 0.124%
CN(C)S(=O)(=O)c1ccc(C(=O)N2CC(=O)Nc3ccc(Br)cc3C2c2ccc(F)cc2)cc1 (configuration not stated) 1.64%
CCOc1cc(CNc2ccc(O)cc2)ccc1OCc1ccc(Cl)cc1 -16.3%
CCOC(=O)c1cc2c(=O)n3ccccc3nc2n(CCCOC)c1=NC(=O)C(C)Oc1ccccc1 (configuration not stated) -0.934%
COc1ccc(CNC(=O)CN(c2ccccc2)S(=O)(=O)N(C)C)cc1 8.88%
COc1ccc(C(CNC(=O)COc2ccc(Cl)c(C)c2)N2CCOCC2)cc1 (configuration not stated) -2.89%
CCCCSc1ncnc2c1c(-c1ccccc1)cn2-c1cccc(F)c1 -0.0841%
CCN(CC)S(=O)(=O)c1nnc(NC(=O)COc2ccc(Cl)cc2)s1 -0.501%
CCn1c(C(=O)N2CCC(C(=O)NCCc3ccc(OC)cc3OC)CC2)cc2sccc21 4.52%
CCOC(=O)c1c(C)oc2nc(C)nc(Nc3ccc(CC)cc3)c12 2.03%
Cc1cc(C)cc(NS(=O)(=O)c2ccc3c(c2)NC(=O)C(C)S3)c1 (configuration not stated) 0.445%
COc1ccc(NC(=O)c2ccc(-c3nc(CSc4ccccc4)c(C)o3)cc2)cc1OC -9.72%
COc1ccccc1Cc1nc2ccccc2[nH]c1=O -1.18%
CCOCCCNC(=O)C1CCC(CNS(=O)(=O)c2ccc(NC(C)=O)cc2)CC1 (configuration not stated) -12.8%
Cc1ccc(C)c(CN2C(=O)c3ccccc3S(=O)c3ccc(C(=O)NCc4ccccc4)cc32)c1 (configuration not stated) -7.42%
COc1cccc2c1Oc1ncccc1N(C(=O)Nc1ccc(F)c(Cl)c1)C2 4.81%
CCOC(=O)C(CC)Sc1ccc2nnc(CCNS(=O)(=O)c3ccc(C)cc3)n2n1 (configuration not stated) 7.53%
CCN1CCN(c2c(S(=O)(=O)c3ccc(OC)cc3)cnc3cc(OC)c(OC)cc23)CC1 1.1%
Cc1c(C(=O)NCc2ccccc2Br)oc2c1-c1[nH]ncc1CC2 13.3%
CCc1ccc(S(=O)(=O)c2nnn3c2nc(NC2CCCCCC2)c2sccc23)cc1 9.57%
COc1ccc(OC)c(NC(=O)N2CCN(S(=O)(=O)c3ccc4c(ccn4C)c3)CC2)c1 -14.7%
COc1ccc(C(CNC(=O)c2oc3ccc(C)cc3c2C)N2CCOCC2)cc1 (configuration not stated) 3.06%
COc1ccc(OC)c(NC(=O)Cn2c(=O)n(Cc3ccccc3)c(=O)c3ccccc32)c1 -15.4%

outcome, inactive:
Cc1ccc(CNC(=O)c2ccc(Cn3c(SCc4ccccc4F)nc4cccnc43)cc2)cc1
CCOC(=O)Cn1cnc2onc(-c3ccc(F)cc3)c2c1=O
